Results from the supplement of paper PMC10681739.
The full ranking holds about 4,100 sequences; the median of “arbitrary fluorescence units” is about 780, and the highest 2% start at about 22,000. Some of the results follow.

Each sequence was assayed against T1, ETS1 (UniProt P14921) (assay: ETS1 binding intensity (PBM fluorescence), ETS1 alone (arbitrary fluorescence units); higher = stronger binding). Settings: ETS1 concentration 1 nM; RUNX1 concentration 0 nM.
T1 sequence: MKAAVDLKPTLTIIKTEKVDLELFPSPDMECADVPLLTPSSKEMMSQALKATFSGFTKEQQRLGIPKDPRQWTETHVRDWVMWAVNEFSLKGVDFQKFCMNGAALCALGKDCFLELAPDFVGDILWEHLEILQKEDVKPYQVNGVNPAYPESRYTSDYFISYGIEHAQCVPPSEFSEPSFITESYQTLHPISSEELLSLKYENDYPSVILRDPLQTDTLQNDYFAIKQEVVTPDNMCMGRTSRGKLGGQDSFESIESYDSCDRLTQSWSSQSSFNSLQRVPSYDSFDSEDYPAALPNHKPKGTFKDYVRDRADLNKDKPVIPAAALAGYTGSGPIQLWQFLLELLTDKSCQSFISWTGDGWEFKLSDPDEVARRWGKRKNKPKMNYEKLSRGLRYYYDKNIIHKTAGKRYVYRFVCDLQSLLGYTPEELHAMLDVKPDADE
Method in brief: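 Double-stranded Agilent 4 × 180k arrays held 36-bp genomic probes whose RUNX1 partner site was mutated, and these were incubated with 1 nM full-length recombinant human ETS1 in the absence of RUNX1 under standard PBM protocols. Bound protein was labelled with anti-ETS1 antibody (Cell Signaling Technology 14069) plus an Alexa488-conjugated secondary and read on a GenePix 4400A, with four spots printed per sequence. Binding level is reported as raw spot fluorescence intensity summarised over replicate spots.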
GCGCTACCGGTTTCCGAGACGCGACGACACAACCAA was tested, and the ETS1 binding intensity was 2520. With GGGGACGAATCGGTCTCGGTTCCGCCCGGCTGGGAG the ETS1 binding intensity was 362. ACGTCAGCATCCGCCGGGCTCGCGATAAGGTGTGAG gave an ETS1 binding intensity of 4150. GCTCGCAGCCCCAAGAGGTGGCCTTCGGTTCCGGGG gave an ETS1 binding intensity of 382. With GATCTCTTCCCCAGGAAGGGTGTGGACTAGGGCCTG the ETS1 binding intensity was 389. For CCAGCCTCACCCGCCCTCACTTCCGCTGACCCGCCC, the ETS1 binding intensity was 3710. Work on TGCTTCCCGTCCGTGTCGCGGCCCTGGGGTTGGCGG yielded an ETS1 binding intensity of 8550. In the case of AGAGGAAATCACACTCTCACTGGGGTTCTCGCAGCT, the ETS1 binding intensity is reported as 447. With CGAACTCCCGTCCGGCCGCGCCTGCAGCCCGCCGCC the ETS1 binding intensity was 687. TCATGCTGCTTCCTGCCCAACCAGCAGTTCCGATAA gave an ETS1 binding intensity of 8650. AGCGGCGGCGGCCGGGCCGGGAGGATGTGTGTGTGC showed an ETS1 binding intensity of 408. In the case of GCAGGGCCAGCGGCGCTCGCGGAAGTGCCACGGTGC, the ETS1 binding intensity is reported as 387. Sequence TTGAGGGTCCACCTCTGCGCTTCTCCTTCCTGATCA has an ETS1 binding intensity of 314. GGGCGCCCGCGATTTAGAAACTACATTTCCCATGAG gave an ETS1 binding intensity of 376. Sequence GAGGCAGGCGGATGTCAGTGTCGTTAGAGCACAGTG has an ETS1 binding intensity of 2340. For GCCCTTCTTGCGATTTTCATGGCAGGATGTTAACAT, the ETS1 binding intensity was 689. Work on AAGGAGGCTACAAGGCCCAACGCAGGAAGTGAAACC yielded an ETS1 binding intensity of 707. For CTCCCGCCACGGCGCGCCCGCGCTCCGGAAAGGCGG, the ETS1 binding intensity was 354. Sequence GATTCCTGAACAGCGGGGAAGGAAGTCCCTGTGAGG has an ETS1 binding intensity of 517. Work on TCCCAGCAAGCACCTCAGCTGGCGCGCGGAAAACCC yielded an ETS1 binding intensity of 315. Sequence ACACTGGCCGGAAGGGGCGGGACAGCGAGTTAAGAG has an ETS1 binding intensity of 3370. Work on GCAGGAAACGCTTTCTTAACACTATGAGGGTGAGGT yielded an ETS1 binding intensity of 755. ACTCCCACCGAAGGCCCCACTACGGACCGGAAGTCA gave an ETS1 binding intensity of 4260. For ACCGGAAGGGCGGGGGCGTGGCGAGGTACCTCAGAC, the ETS1 binding intensity was 1410. CTTTGTGACTTTTTCTTGGTAGTTGGGCAGGAAGCC was tested, and the ETS1 binding intensity was 476. Sequence AGGGTGGCGGCAGAGCCATGGACTTCCGGTCCCTGC has an ETS1 binding intensity of 14000. Sequence AGTGCTGTTTCTGGTGAGGGCCCTCTTCCTGGCTTG has an ETS1 binding intensity of 482. CACCTCAGCTTCCTGTGTAGCTGGGACCCCAGGCAT gave an ETS1 binding intensity of 9920. With GAAAAGCAGCGGATTCCCTTTGAGCCGGAACAGGAG the ETS1 binding intensity was 385. GAGAAGGCAACCCCGAAAAGGAGGCGGAAACGCCTC gave an ETS1 binding intensity of 606. Work on CCCACTTCCTGTCCCTGCATGCTCTGGGGCAGGCAG yielded an ETS1 binding intensity of 31100. Work on AGGGGCTTCTGGGAACCGGCCGGAACCGGCTGTGGA yielded an ETS1 binding intensity of 347. Work on GTTTTGTTATCCGCCCGCACCTAGAGGCCGCGAGGC yielded an ETS1 binding intensity of 961. Sequence GGGGTGGGGACACCGTGGAGGCCCGGAAATGGTGAC has an ETS1 binding intensity of 2440. Sequence GGGGACGGCCCCTCAGCTCCCGGACGCCACGGCCAG has an ETS1 binding intensity of 325. With GGCTAGCATCCGCTTCCCAGAGCCCCTCAGCCGGGG the ETS1 binding intensity was 6470. CAGGGGGCGGAACGTAAAACGCCTTGTAGCCGACGC was tested, and the ETS1 binding intensity was 527. Work on AGTTTTCCGTCGGGCTCCCAGTGACGCCGAAGAGGT yielded an ETS1 binding intensity of 2580. Sequence CTTAGCGGAAGAGGCGTGACCCAGGCGTACCCCAGG has an ETS1 binding intensity of 1380. CTGCAACCTTAAACCAGCTCCCAGGGCCAGGAAGGT showed an ETS1 binding intensity of 349. Work on CTTTCGCTTCCTTTCCCCGCCTCTTAGTCCCGAAGA yielded an ETS1 binding intensity of 2880. In the case of CTTGTGCCTACATCCTGTAGCTGTGATTTAGGGACG, the ETS1 binding intensity is reported as 6270. Work on ACTCAAAAAGCACCTCCCCCTCAGGGAGGAAGGAGG yielded an ETS1 binding intensity of 368. Work on CGCCTCGCCTCTTTCCGCCAGCGCCCTCAGGACCCG yielded an ETS1 binding intensity of 830. For TGGCTTGTTTCCGGTTCCTCAGTGGCGCCGTTCTCG, the ETS1 binding intensity was 21100. Work on GACCTTCACCTACAAGAACCACTTCCTCTCAGTAAA yielded an ETS1 binding intensity of 2720. With CCAGCAAAGGAAGCTTGGTCAACGACAGCAGCCTGT the ETS1 binding intensity was 461. ACACCGGAAGCCCAACAGCATGCCGAGTAAGCACCC showed an ETS1 binding intensity of 7470. GGCCAGGCAGGAAGTCCCGCGCCAAAAGCGGCCGTC showed an ETS1 binding intensity of 4900. Sequence GAACCCCAGAAATCGCGAGCCGTTTCCTTTCTCTTC has an ETS1 binding intensity of 731. For CTGGCCAGCGCCCGCCACCACTTCCTCCTCCCCATG, the ETS1 binding intensity was 1300. For GTCGTGGAGGTCGCGAGGGAGCCGGAAAGATGGTGG, the ETS1 binding intensity was 408. Work on GCCGAGCCAGGGGTTTCGCATCCGCACTTTCGCCAC yielded an ETS1 binding intensity of 595. CATTTCTGTTGGGGTTGGCAGCGTTTCCTTCCACGG gave an ETS1 binding intensity of 454. Work on GGGAAGGACTACGGCACAAGGGACTTCCGGCTCTTG yielded an ETS1 binding intensity of 6480. TCCCCACACTTCCGGCCCCGCGCGCACAGCCGCACC was tested, and the ETS1 binding intensity was 25400. CTTACTATATTAACGCCGGTACACATCCGCCCGACA was tested, and the ETS1 binding intensity was 1800. Work on CTGAGGCGCGCCGGAAGGGCTAGCAGTCCCAGCATA yielded an ETS1 binding intensity of 1100. Sequence CCCAGGGCAGGAAGGGCCAAACGGCTACTGCCACTG has an ETS1 binding intensity of 731. CAAGAGGAACCGGAACTTTGGAAACTACATTCTTAT gave an ETS1 binding intensity of 1500. For ACCCAGGGGACTTCCTGGCTCAGTGCCACGACCCAG, the ETS1 binding intensity was 5860. For TGGCGTGGATTTTTTTTTTTTTTTCACCCGGAAACC, the ETS1 binding intensity was 446. AAGTGGGGTGAAGGAAGCTGTACACCGTGGAGTCAC showed an ETS1 binding intensity of 399.
